In assay [1] the test system is RAW-Dual. Nature of the assay: NF-kB SEAP reporter activity, fold change vs agonist alone; higher = enhanced NF-kB activity. To be noted: cytotoxicity flag (confluency mask): not cytotoxic. Summed up: (§1)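 Library stock was pin-tooled at 50 nL into 384-well plates of RAW-Dual macrophages (50,000 cells/well, DMEM), followed 1 h later by a PRR agonist, and the cells were kept at 37 °C, 5% CO2. Supernatant collected after 20 hours was read for IRF by QuantiLuc luminescence and for NF-κB by QuantiBlue absorbance at 620 nm. Reporter activity is fold change over agonist-alone wells, and a well counted as cytotoxic when its IncuCyte confluency was below 70% of agonist controls in both mask sets.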

In assay [2] the test system is RAW-Dual. Put plainly: NF-kB SEAP reporter activity, fold change vs agonist alone; cytotoxicity flag (confluency mask): not cytotoxic; higher = enhanced NF-kB activity. Summed up:
as §1

The mark [3] stands for this setting: library stock concentration (final ~1000-fold dilution): 2 mM, agonist: Imiquimod (TLR7) […].
Setting [4] is: library stock concentration (final ~1000-fold dilution): 2 mM, agonist: MPLA (TLR4) […].
The mark [5] stands for this setting: agonist: ODN 1826 (TLR9) 0.5 ug/mL.
Where [6] appears, read: agonist: Pam2CSK4 (TLR2/6) 0.1 ug/mL.
Setting [7] is: agonist: Pam3CSK4 (TLR2/1) 0.1 ug/mL.
Where [8] appears, read: library stock concentration (final ~1000-fold dilution): 10 mM, agonist: Imiquimod (TLR7) […].
Where [9] appears, read: library stock concentration (final ~1000-fold dilution): 10 mM, agonist: MPLA (TLR4) […].

Structures are written as SMILES. Whole data set: some 2,900 compounds, median “NF-kB SEAP reporter activity, fold change vs agonist alone” near 0.99, cut for the highest 2% near 2.6. This is one part of the list.

With `CC(C)(C)c1ccc(C(=O)CCCN2CCC(OC(c3ccccc3)c3ccccc3)CC2)cc1`, the “NF-kB SEAP reporter activity” value came out at 1.14 in the assay on RAW-Dual [1] (setting [3]) and 1.17 in the assay on RAW-Dual [1] (setting [4]).
Take `CC(C)(C)c1ccc(C(=O)CCCN2CCC(OC(c3ccccc3)c3ccccc3)CC2)cc1` (library stock concentration (final ~1000-fold dilution): 2 mM): the “NF-kB SEAP reporter activity” value with RAW-Dual [2] (agonist: LPS (TLR4) 0.1 ug/mL) was determined as 1.36; in the assay with RAW-Dual [2] (setting [5]), 1.32; in the assay on RAW-Dual [2] (setting [6]) it was 1.02; in the assay on RAW-Dual [2] (setting [7]), 1.13.
On to `CCOC(=O)C1=CC2(CC)CCCN3CCc4c(n1c1ccccc41)C32` (configuration not stated), for which the “NF-kB SEAP reporter activity” value came to 0.798 in the assay on RAW-Dual [1] (setting [3]) and 1.1 with RAW-Dual [1] (setting [4]).
Regarding `CCOC(=O)C1=CC2(CC)CCCN3CCc4c(n1c1ccccc41)C32` (configuration not stated) (library stock concentration (final ~1000-fold dilution): 2 mM), the “NF-kB SEAP reporter activity” value in the assay on RAW-Dual [2] (agonist: LPS (TLR4) 0.1 ug/mL) came to 1.38; in the assay on RAW-Dual [2] (setting [5]), 0.889; in the assay with RAW-Dual [2] (setting [6]) it was 1.09; with RAW-Dual [2] (setting [7]), 1.15.
Consider `NC(Cc1ccccc1)C(=O)O` (configuration not stated), for which the “NF-kB SEAP reporter activity” value in the assay with RAW-Dual [1] (library stock concentration (final ~1000-fold dilution): 2 mM water, agonist: Imiquimod (TLR7) […]) is 0.909; in the assay on RAW-Dual [1] (library stock concentration (final ~1000-fold dilution): 2 mM water, agonist: MPLA (TLR4) […]) it was 1.03.
Consider `NC(Cc1ccccc1)C(=O)O` (configuration not stated) (library stock concentration (final ~1000-fold dilution): 2 mM water), for which the “NF-kB SEAP reporter activity” value in the assay with RAW-Dual [2] (agonist: LPS (TLR4) 0.1 ug/mL) is 1.49; in the assay with RAW-Dual [2] (setting [5]), 1.09; with RAW-Dual [2] (setting [6]), 1.16; with RAW-Dual [2] (setting [7]) it was 1.04.
In the case of `Cc1noc(C)c1-c1cnc2c(-c3ccc(C(=O)O)cc3)cn(C(C)c3ccccn3)c2c1` (configuration not stated), the “NF-kB SEAP reporter activity” value in the assay on RAW-Dual [1] (setting [8]) stood at 1.59; in the assay on RAW-Dual [1] (setting [9]) it was 2.29.
Turning to `Cc1noc(C)c1-c1cnc2c(-c3ccc(C(=O)O)cc3)cn(C(C)c3ccccn3)c2c1` (configuration not stated) (library stock concentration (final ~1000-fold dilution): 10 mM), the “NF-kB SEAP reporter activity” value in the assay with RAW-Dual [2] (agonist: LPS (TLR4) 0.1 ug/mL) stood at 2.32; in the assay on RAW-Dual [2] (setting [5]), 1.73; in the assay with RAW-Dual [2] (setting [6]), 0.767; in the assay with RAW-Dual [2] (setting [7]) it was 2.09.
Take `Nc1c(CC(=O)O)cccc1C(=O)c1ccc(Br)cc1` (library stock concentration (final ~1000-fold dilution): 10 mM): the “NF-kB SEAP reporter activity” value was 1.39 in the assay with RAW-Dual [2] (agonist: LPS (TLR4) 0.1 ug/mL), 0.943 with RAW-Dual [2] (setting [5]), 0.89 in the assay on RAW-Dual [2] (setting [6]) and 1.04 with RAW-Dual [2] (setting [7]).
Take `Nc1c(CC(=O)O)cccc1C(=O)c1ccc(Br)cc1`: the “NF-kB SEAP reporter activity” value worked out at 0.922 with RAW-Dual [1] (setting [8]) and 0.993 with RAW-Dual [1] (setting [9]).
`Cn1nccc1Nc1nccc(-c2cc3c(s2)C(C)(C)N(CCN2CCOCC2)C3=O)n1` (library stock concentration (final ~1000-fold dilution): 10 mM): the “NF-kB SEAP reporter activity” value in the assay with RAW-Dual [2] (agonist: LPS (TLR4) 0.1 ug/mL) turned out to be 0.473; in the assay on RAW-Dual [2] (setting [5]), 0.371; in the assay on RAW-Dual [2] (setting [6]), 0.0728; in the assay with RAW-Dual [2] (setting [7]), 0.14.
In the case of `Cn1nccc1Nc1nccc(-c2cc3c(s2)C(C)(C)N(CCN2CCOCC2)C3=O)n1`, the results for the “NF-kB SEAP reporter activity” value in the assay on RAW-Dual [1] (setting [8]) and in the assay with RAW-Dual [1] (setting [9]) were 0.273 and 0.302, respectively.
In the case of `Cl.N=C(N)NC(=O)c1nc(Cl)c(N)nc1N.O.O` (library stock concentration (final ~1000-fold dilution): 10 mM water), the “NF-kB SEAP reporter activity” value in the assay with RAW-Dual [2] (agonist: LPS (TLR4) 0.1 ug/mL) was found to be 1.07; in the assay on RAW-Dual [2] (setting [5]), 1.09; in the assay with RAW-Dual [2] (setting [6]), 0.993; in the assay with RAW-Dual [2] (setting [7]), 0.984.
In the case of `Cl.N=C(N)NC(=O)c1nc(Cl)c(N)nc1N.O.O`, the “NF-kB SEAP reporter activity” value is 0.827 in the assay with RAW-Dual [1] (library stock concentration (final ~1000-fold dilution): 10 mM water, agonist: Imiquimod (TLR7) […]) and 1.01 with RAW-Dual [1] (library stock concentration (final ~1000-fold dilution): 10 mM water, agonist: MPLA (TLR4) […]).
For `COc1cc2c(cc1OCCCN1CCCC1)N=C(N)C21CCC1`, the entries for the “NF-kB SEAP reporter activity” value in the assay on RAW-Dual [1] (setting [8]) and in the assay on RAW-Dual [1] (setting [9]) were 0.803 and 0.854, respectively.
Take `COc1cc2c(cc1OCCCN1CCCC1)N=C(N)C21CCC1` (library stock concentration (final ~1000-fold dilution): 10 mM): the “NF-kB SEAP reporter activity” value is 0.857 in the assay with RAW-Dual [2] (agonist: LPS (TLR4) 0.1 ug/mL), 0.882 in the assay on RAW-Dual [2] (setting [5]), 0.941 with RAW-Dual [2] (setting [6]) and 1.05 with RAW-Dual [2] (setting [7]).
With `CNC(=O)c1ccc(-c2cnc3cnc(-c4ccccc4)cn23)cc1` (library stock concentration (final ~1000-fold dilution): 10 mM), the “NF-kB SEAP reporter activity” value in the assay with RAW-Dual [2] (agonist: LPS (TLR4) 0.1 ug/mL) came out at 1.54; in the assay on RAW-Dual [2] (setting [5]), 0.763; in the assay with RAW-Dual [2] (setting [6]) it was 1.22; in the assay on RAW-Dual [2] (setting [7]), 2.3.

Source of the values: the supplement of paper PMC10037445.
